Paper PMC4336329 (PLoS ONE, 2015)
Hit rate of the full screen: of about 310,000 compounds, about 14,000 (4.5%) showed an effect of 50% or more. Effects have a minus sign here. The list shows a part of the results.

The molecules below were run against human ether-à-go-go-related gene (hERG) potassium channel (human, UniProt Q12809) (assay: primary screen, population patch clamp on CHO cells stably expressing hERG).
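Also: peak tail current of the secondary pulse compared with the same well before compound.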

human ether-à-go-go-related gene (hERG) potassium channel, sequence (Q12809 whole entry, looked up): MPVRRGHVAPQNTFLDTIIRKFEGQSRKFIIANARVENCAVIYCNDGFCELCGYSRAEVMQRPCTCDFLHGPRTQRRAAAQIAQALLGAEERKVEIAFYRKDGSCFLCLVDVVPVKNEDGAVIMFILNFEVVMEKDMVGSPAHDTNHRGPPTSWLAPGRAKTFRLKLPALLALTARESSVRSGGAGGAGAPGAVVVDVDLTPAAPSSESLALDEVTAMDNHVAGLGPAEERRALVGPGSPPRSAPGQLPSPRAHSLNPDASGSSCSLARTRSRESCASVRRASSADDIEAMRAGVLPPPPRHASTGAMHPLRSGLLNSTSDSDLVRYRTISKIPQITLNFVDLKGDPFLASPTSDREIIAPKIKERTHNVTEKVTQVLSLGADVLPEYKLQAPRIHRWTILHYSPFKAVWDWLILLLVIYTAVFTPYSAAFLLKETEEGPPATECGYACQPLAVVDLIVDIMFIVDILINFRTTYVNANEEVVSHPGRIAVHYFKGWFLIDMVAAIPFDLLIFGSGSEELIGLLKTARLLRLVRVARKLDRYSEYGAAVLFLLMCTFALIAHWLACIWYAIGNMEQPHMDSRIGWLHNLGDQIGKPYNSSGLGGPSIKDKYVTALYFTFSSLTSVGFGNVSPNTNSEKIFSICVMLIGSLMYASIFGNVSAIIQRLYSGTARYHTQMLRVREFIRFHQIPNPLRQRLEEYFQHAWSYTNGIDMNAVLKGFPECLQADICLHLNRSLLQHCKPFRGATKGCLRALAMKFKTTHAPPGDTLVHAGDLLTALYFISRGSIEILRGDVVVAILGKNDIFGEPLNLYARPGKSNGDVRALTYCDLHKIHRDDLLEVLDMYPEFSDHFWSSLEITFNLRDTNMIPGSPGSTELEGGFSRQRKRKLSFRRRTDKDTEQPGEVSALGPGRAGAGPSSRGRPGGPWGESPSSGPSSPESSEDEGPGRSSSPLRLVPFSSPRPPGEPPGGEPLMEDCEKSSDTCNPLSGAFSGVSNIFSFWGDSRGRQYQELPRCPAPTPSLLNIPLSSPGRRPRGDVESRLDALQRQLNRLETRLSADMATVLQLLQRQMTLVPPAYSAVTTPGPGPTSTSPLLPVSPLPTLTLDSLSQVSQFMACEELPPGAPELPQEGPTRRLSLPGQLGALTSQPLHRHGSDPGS

For CCOC(=O)c1c(S(=O)(=O)N(C)Cc2ccccc2)c(C)n(C)c1C, which “hERG current change (%, negative = inhibition) at 10uM” value is on record?
Its value is -6.14%.

CN(C)CCCN(C(=O)c1ccc(S(=O)(=O)N2CCOCC2)cc1)c1nc2ccc(F)cc2s1.Cl was tested. Which “hERG current change (%, negative = inhibition) at 10uM” value did it give?
The value was -58.7%.

With O=C(Cc1ccc(S(=O)(=O)N2CCCC2)s1)N1CCN(c2ccccc2)CC1 as the molecule, how does the “hERG current change (%, negative = inhibition) at 10uM” value read?
The value was -28.4%.

CCc1cccc2c(C(=O)CSc3nnc(-c4ccoc4C)n3C)c[nH]c12 was tested. Which “hERG current change (%, negative = inhibition) at 10uM” value did it give?
The value was -4.21%.

With O=C(O)c1ccc(S(=O)(=O)c2ccc3c(c2)C(=O)N(NC(=O)c2ccncc2)C3=O)cc1 as the molecule, how does the “hERG current change (%, negative = inhibition) at 10uM” value read?
Its value is 3.42%.

With CC(C)(C)n1nnnc1C(c1cccc(C(F)(F)F)c1)N1CCC(O)CC1 (stereo not drawn) as the molecule, how does the “hERG current change (%, negative = inhibition) at 10uM” value read?
Its value is -12.5%.

How did the “hERG current change (%, negative = inhibition) at 10uM” value turn out when CCOC(=O)Nc1cccc(Cl)c1C was run?
Its value is 2.28%.

Which “hERG current change (%, negative = inhibition) at 10uM” value does the source give for CC1(c2ccc(OC(F)F)cc2)NC(=O)N(CC(=O)c2ccc3c(c2)OCO3)C1=O (stereo not drawn) here?
The value was -44.1%.

Which “hERG current change (%, negative = inhibition) at 10uM” value does the source give for CCO[C@H]1OC(C(=O)Nc2ccccc2)=C[C@@H](c2csc3ccccc23)[C@@H]1CCCO here?
Its value is -9.47%.

COc1ccccc1N1CCN(C(=O)C(C)CS(=O)(=O)c2ccc3c(c2)NC(=O)CS3)CC1 (stereo not drawn) was tested. Which “hERG current change (%, negative = inhibition) at 10uM” value did it give?
Its value is 4.07%.

Which “hERG current change (%, negative = inhibition) at 10uM” value does the source give for CC(=O)Nc1ccc(NC(=O)C(C)OC(=O)C2CCCC2)cc1 (stereo not drawn) here?
The value was 14.9%.

NC(=O)c1cc2cc(Cl)ccc2oc1=O was tested. Which “hERG current change (%, negative = inhibition) at 10uM” value did it give?
Its value is 11.8%.

Which “hERG current change (%, negative = inhibition) at 10uM” value does the source give for Cl.c1ccc(CSCc2cn3ccccc3n2)cc1 here?
Its value is 2.98%.

For O=C(C[n+]1cc(Br)cc2ccccc21)c1ccc(F)cc1.[Br-], which “hERG current change (%, negative = inhibition) at 10uM” value is on record?
Its value is -41.6%.

With COc1ccc(C2C(C(=O)c3ccco3)=C(O)C(=O)N2Cc2cccnc2)cc1OC (stereo not drawn) as the molecule, how does the “hERG current change (%, negative = inhibition) at 10uM” value read?
The value was 8.4%.

Cc1ccc(C2C(C#N)=C(N)N(c3cccnc3)C3=C2C(=O)CCC3)s1 (stereo not drawn) was tested. Which “hERG current change (%, negative = inhibition) at 10uM” value did it give?
Its value is -0.707%.

How did the “hERG current change (%, negative = inhibition) at 10uM” value turn out when O=C(COC(=O)C1CC(O)CN1C(=O)Oc1ccccc1)c1ccc(Br)cc1 (stereo not drawn) was run?
Its value is -20.8%.

For Cc1cccc(NC(=S)NCc2ccc3c(c2)OCO3)c1, which “hERG current change (%, negative = inhibition) at 10uM” value is on record?
The value was -9.62%.

With O=C(Nc1ccc(Cl)cc1C(=O)N1CCCCC1)c1ccco1 as the molecule, how does the “hERG current change (%, negative = inhibition) at 10uM” value read?
The value was 10.9%.

For COC(C[C@@H](O)C[C@@H](O)[C@@H](C)OCc1ccccc1)OC, which “hERG current change (%, negative = inhibition) at 10uM” value is on record?
The value was 12.5%.

How did the “hERG current change (%, negative = inhibition) at 10uM” value turn out when Cc1ccccc1NC(=O)c1ccccc1NS(=O)(=O)c1cccc2cccnc12 was run?
Its value is 0.178%.

Which “hERG current change (%, negative = inhibition) at 10uM” value does the source give for O=C(CSc1nnc(-c2ccc(F)cc2)n1CC1CCCO1)NCc1ccco1 (stereo not drawn) here?
Its value is 13.2%.

NC(=O)NC(CC(=O)NCCCc1ccccc1)c1ccc(Cl)cc1 (stereo not drawn) was tested. Which “hERG current change (%, negative = inhibition) at 10uM” value did it give?
Its value is 15.3%.

O=C(CSc1nnc(-c2ccccc2Cl)o1)Oc1ccc(Br)cc1 was tested. Which “hERG current change (%, negative = inhibition) at 10uM” value did it give?
Its value is 38.5%.

For O=C(/C=C/c1cccnc1)c1cccc(O)c1, which “hERG current change (%, negative = inhibition) at 10uM” value is on record?
Its value is 5.9%.

For O=C(Nc1nc2c(s1)CCCC2)c1cccnc1, which “hERG current change (%, negative = inhibition) at 10uM” value is on record?
Its value is 2.81%.

Which “hERG current change (%, negative = inhibition) at 10uM” value does the source give for CCC(=O)Nc1ccc(Oc2ccc(NC(=O)CC)c(NC(=O)CC)c2)cc1 here?
The value was 2.52%.

With COc1ccc(-c2nnc(SCC(N)=O)n2N)cc1 as the molecule, how does the “hERG current change (%, negative = inhibition) at 10uM” value read?
Its value is 6.29%.

CCc1cc(C(=O)N2CCN(c3ncc(C(F)(F)F)cc3Cl)CC2)sc1C was tested. Which “hERG current change (%, negative = inhibition) at 10uM” value did it give?
Its value is -3.1%.

Which “hERG current change (%, negative = inhibition) at 10uM” value does the source give for Cc1ccc(OCC(=O)NNC(=O)Cn2c(=O)cnc3ccccc32)cc1 here?
The value was -3.16%.

For CCC(=NCc1cc(OC)cc(OC)c1)c1c(O)n(C2CCCCC2)c(=O)[nH]c1=O, which “hERG current change (%, negative = inhibition) at 10uM” value is on record?
Its value is 15.3%.

With O=C(/C=C/c1ccco1)NC(=S)Nc1ccc(C(=O)O)cc1 as the molecule, how does the “hERG current change (%, negative = inhibition) at 10uM” value read?
The value was 22.1%.

How did the “hERG current change (%, negative = inhibition) at 10uM” value turn out when CC(C)CC(c1nnnn1Cc1cccs1)N1CCN(c2nc3ccccc3s2)CC1 (stereo not drawn) was run?
The value was 0.473%.

Which “hERG current change (%, negative = inhibition) at 10uM” value does the source give for CNS(=O)(=O)c1cc(Cl)ccc1Sc1ccccc1C(=O)O here?
Its value is 14.3%.

COC(C[C@H]1O[C@H]1C(=O)[C@H](C)OCc1ccccc1)OC was tested. Which “hERG current change (%, negative = inhibition) at 10uM” value did it give?
Its value is 14.5%.

Which “hERG current change (%, negative = inhibition) at 10uM” value does the source give for NC(=O)N\N=C/C=C/C=C/c1ccc(F)cc1 here?
Its value is 16.1%.

With Cc1nn(C)cc1S(=O)(=O)N1CCN(c2cccc(Cl)c2)CC1 as the molecule, how does the “hERG current change (%, negative = inhibition) at 10uM” value read?
The value was 8.55%.

For Cc1ccc(NC(=O)CNCc2ccccc2)cc1Br.Cl, which “hERG current change (%, negative = inhibition) at 10uM” value is on record?
The value was -26.1%.

CC(CCn1cccn1)NC(=O)CCc1nnc(C2CCCCC2)o1 (stereo not drawn) was tested. Which “hERG current change (%, negative = inhibition) at 10uM” value did it give?
Its value is 23.8%.

Which “hERG current change (%, negative = inhibition) at 10uM” value does the source give for CC(C)CC1(C(=O)O)NC(c2ccccc2O)C2C(=O)N(C(C)C)C(=O)C21 (stereo not drawn) here?
Its value is 23.8%.

Which “hERG current change (%, negative = inhibition) at 10uM” value does the source give for O=C(COc1ccccc1)Nc1cc2c3c(c1)CC(=O)N3CCC2 here?
The value was -36%.

With COc1ccc(N=CC2=C(O)CCCC2=O)cc1 as the molecule, how does the “hERG current change (%, negative = inhibition) at 10uM” value read?
Its value is 5.25%.

With O=C(NC(N1CCCC1)C(Cl)(Cl)Cl)c1ccccc1 (stereo not drawn) as the molecule, how does the “hERG current change (%, negative = inhibition) at 10uM” value read?
Its value is 12.6%.

For Cc1ccc(NC(=O)CCNS(=O)(=O)c2ccc3c(c2)CCC(=O)N3)cc1C, which “hERG current change (%, negative = inhibition) at 10uM” value is on record?
The value was 19.7%.

Which “hERG current change (%, negative = inhibition) at 10uM” value does the source give for COc1cc2nc(CN3CCN(S(=O)(=O)c4c(F)cccc4F)CC3)[nH]c(=O)c2cc1OC here?
The value was -33.4%.
